# From PubChem BioAssay AID624172 (National Center for Advancing Translational Sciences (NCATS), 2012)
# Out of some 380,000 compounds screened, about 25 (0.007%) were called active. The inconclusive results got no clear call from the source; some entries with a clear call stand among them for comparison. The call rests on the fitted dose curve; in most records, active means well fitted activation curve with a large enough effect; inconclusive means small, poorly fitted or top-dose-only effect; inactive means no such curve, though single readings can be large or run the other way. Potencies of inconclusive entries are left out as doubtful fits.
# Molecular target: Glucagon-like peptide 1 receptor (Homo sapiens) (UniProt P43220)
# Sequence of UniProt P43220 (P43220 whole entry, looked up): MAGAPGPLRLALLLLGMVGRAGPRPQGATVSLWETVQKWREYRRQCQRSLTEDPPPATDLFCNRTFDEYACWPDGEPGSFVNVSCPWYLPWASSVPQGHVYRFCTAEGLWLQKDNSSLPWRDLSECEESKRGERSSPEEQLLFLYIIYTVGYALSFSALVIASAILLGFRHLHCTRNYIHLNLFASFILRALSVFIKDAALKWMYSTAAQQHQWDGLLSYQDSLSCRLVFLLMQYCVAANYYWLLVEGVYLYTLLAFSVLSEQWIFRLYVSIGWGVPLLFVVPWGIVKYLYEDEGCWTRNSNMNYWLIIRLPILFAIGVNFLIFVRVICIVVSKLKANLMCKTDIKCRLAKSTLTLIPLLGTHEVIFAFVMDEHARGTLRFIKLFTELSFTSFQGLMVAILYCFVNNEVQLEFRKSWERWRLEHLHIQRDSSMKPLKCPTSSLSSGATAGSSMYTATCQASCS
# Test: qHTS of GLP-1 Receptor Agonists; on activation: % of control where 0% means no effect
# Conditions: HEK293 GLP-1R CRE-luciferase, luminescence, 4-6 h, cells express a hypersensitive GLP-1R form; activation: at 45.6 µM (top of the series) unless noted
# From the text: The overall goal of this project was to develop a novel assay for discovering small molecule ligands for class B1 G protein-coupled receptors (GPCRs). Very few agonists (or inverse agonists) with generally weak activity for this entire group of physiologically important receptors are known to date. To establish proof-of-principle that this critical bottleneck can be overcome with a suitable screening approach, our studies focused on the class B1 receptor for glucagon-like peptide-1 (GLP-1R), a potential therapeutic target for diabetes and neurodegenerative disease.
# The assay was developed in a "mix and measure" format using a cell-based functional readout. Toward this goal, stably transfected HEK293 cell clones were established that co-express (i) a cAMP-responsive luciferase reporter gene, and (ii) GLP-1Rs that upon ligand interaction either stimulate (agonists) or inhibit (inverse agonists) luciferase activity. In different cell lines to be used for screening, expressed GLP-1Rs are specifically optimized for high sensitivity detection of either weak agonists (hypersensitive receptor) or inverse agonists (constitutively active receptor mutant). In addition, control cell lines were developed that express either the cAMP-responsive reporter gene without recombinant GLP-1Rs (enabling initial exclusion of GLP-1R independent effects of candidate probes), or the reporter gene together with wild type GLP-1Rs (for confirmation of probe activity at this receptor), or the reporter gene in combination with the constitutively active orphan receptor GPR119 (enabling initial exclusion of GLP-1R independent inhibitory effects of candidate inverse agonists).
# To that end, this assay was optimized for 1536-well format and screened against the MLSMR.
# NIH Molecular Libraries Probe Production Network [MLPCN]
# NIH Chemical Genomics Center [NCGC]
# PI Name: Martin Beinborn, Tufts Medical Center
# In a white solid 1536-well plate, 6 uL of cells are dispensed in DMEM without phenol red, 10% Nu serum, and 1% pen-strep medium. The plates are then incubated for 12 hours at 37 deg C at 5% CO2 before 23 nL of compounds are added. After a 4-6 hr incubation at37 deg C and 5% CO2, 3 uL of detection reagent are added and after a 12 min incubation at RT, a luminescent read is obtained on the ViewLux.
# Potency means the concentration at half of the fitted maximal effect; tags describe the fitted curve by direction and shape.
Compound,activation,Potency
CN1CCC(N(C)S(=O)(=O)c2ccc(NC(=O)Cc3ccc(F)cc3)cc2)CC1,inactive: -4.26%,–
CCN1CCN(S(=O)(=O)c2ccc(Cl)c(C(=O)N(CC)CC(=O)Nc3ccc(OC)cc3)c2)CC1,inactive: -0.719%,–
Cc1ccc2[nH]c3c(=O)n(Cc4ccccn4)cnc3c2c1,–,"inconclusive [activator, partial curve, poor fit]"
CCC1(c2ccccc2)NC(=O)N(CC(=O)NCc2ccc(OC)cc2)C1=O (centres undefined),inconclusive: 42.1% [activator],–
CC(=O)Nc1ccccc1/C=C/c1ccc2c(C)ccc(O)c2n1,inactive: -4.02%,–
O=C(NCCCN1CCN(c2ccccc2F)CC1)C1CCN(S(=O)(=O)N2CCOCC2)CC1,inactive: -4.86%,–
COc1ccc(/C=C2/C(=O)OCc3cc(OC)c(OC)cc32)c(OC)c1,–,"inconclusive [activator, partial curve, poor fit]"
CCOc1ccccc1NS(=O)(=O)c1ccc(-c2cnc(C3CC3)o2)cc1,–,"inconclusive [activator, partial curve, poor fit]"
Cn1cccc1/C=C1\SC(=Nc2ccc(O)cc2)NC1=O,–,"inconclusive [activator, full curve]"
COc1ccccc1NC(=O)c1ccc(-c2ccccc2[N+](=O)[O-])o1,–,"inconclusive [activator, single point]"
O=C(CNC(=O)c1ccc(F)cc1)c1ccc(Cl)cc1,inactive: 6.88%,–
Cc1nc2c(-c3ccccc3)c(C)nn2c(C)c1CCC(=O)NCc1ccco1,inactive: 12.3%,–
Cc1ccc(NC(=O)CSc2nc(C)c(C)c(C)n2)c([N+](=O)[O-])c1,–,"inconclusive [activator, single point]"
O=C(NCc1cccc(Cl)c1)c1ccc(-c2cccnc2)c2ccoc12,–,"inconclusive [activator, partial curve, poor fit]"
COc1ccc(-c2cc(=O)c3cc(O)ccc3o2)cc1,–,"inconclusive [activator, single point]"
CCOC(=O)c1oc2cccc(O)c2c1C,–,"inconclusive [activator, partial curve, poor fit]"
CCOc1ccccc1C(=O)N/N=C/c1cccc2cccnc12,–,"inconclusive [activator, single point]"
CC1CN(c2ccc([N+](=O)[O-])c(NCCOc3ccccc3)c2)CCN1 (centres undefined),–,"inconclusive [activator, partial curve, poor fit]"
CSc1nnc(C)c(/C=C/Nc2ccc(C)cc2)n1,–,"inconclusive [activator, partial curve, poor fit]"
C/C(=N\NC(N)=S)c1ccccc1,inactive: 9.65%,–
COc1cc(-c2cnc3c(NC=O)cc(-c4cccc(NC(C)=O)c4)cn23)cc(OC)c1OC,–,"inconclusive [activator, full curve]"
COc1ccc(CCNC(=O)c2c(-c3ccccc3Cl)noc2C)cc1,inactive: 3.28%,–

Compound,activation,Potency
COc1cccc(-c2nn3c(-c4cccc(C)c4)nnc3s2)c1,–,"inconclusive [activator, partial curve, poor fit]"
COC(=O)CSc1nnc(-c2ccc(OC)c(OC)c2)o1,–,"inconclusive [activator, partial curve]"
O=C(O)c1nn(CCOc2ccc(Cl)cc2Cl)c(=O)c2ccccc12,–,"inconclusive [activator, partial curve, poor fit]"
Cc1cccc2cc(/C=C3\N=C(c4ccccc4)OC3=O)c(N3CCOCC3)nc12,inactive: 5.8%,–
O=C1C2C3C=CC(CC3)C2C(=O)N1/N=C/c1ccccc1O (centres undefined),–,"inconclusive [activator, single point]"
c1ccc(Nc2nc(N3CCCC3)nc(N3CCCC3)n2)cc1,inactive: 7.11%,–
CC(=O)Nc1ccc(NC(=O)CCOc2ccccc2C)cc1,inconclusive: 40.5% [activator],–
COc1ccc(/C(C)=N/NC(=O)c2ccccc2OCc2ccccc2)c(OC)c1,–,"inconclusive [activator, single point]"
Cc1ccc(NC(=O)CN2C(=O)NC(C)(c3ccccc3)C2=O)c(C)c1 (centres undefined),inactive: 8.24%,–
CCCCc1ccc(-n2nc3cc(Cl)c(NC(=O)c4ccc(OC)cc4)cc3n2)cc1,inactive: -0.395%,–
C/C(=N\NC(=S)NCCc1ccccc1)c1ccc(Cl)cc1,–,"inconclusive [activator, single point]"
COc1ccc(NC(=O)CCCN2C(=O)C(c3ccccc3)Oc3cccnc32)cc1 (centres undefined),–,"inconclusive [activator, single point]"
CC(Sc1nc2ncc(Cl)cc2[nH]1)C(=O)Nc1ccccc1[N+](=O)[O-] (centres undefined),inactive: -1.11%,–
Cc1nn(C)c(C)c1/C=C/C(=O)c1cccs1,–,"inconclusive [activator, partial curve, poor fit]"
Cn1ccsc1=NC(=O)c1ccc(=O)[nH]c1,inactive: -1.67%,–
O=C1c2ccccc2C(=O)c2c(/C=C/N3CCCCC3)ccnc21,inactive: 2.79%,–
CCC(C)Sc1ccc([C@H]2N[C@@](C)(C(=O)OC)[C@H]3C(=O)N(CC)C(=O)[C@@H]23)cc1 (some centres undefined),–,"inconclusive [activator, partial curve, poor fit]"
CCc1ccc(C(=O)COC(=O)c2cc([N+](=O)[O-])ccc2N2CCOCC2)cc1,–,"inconclusive [activator, partial curve]"
COc1ccc(C(=O)/C=C2\NCCc3cc(OC)c(OC)cc32)cc1OC,–,"inconclusive [activator, full curve]"
Cc1onc(-c2ccccc2Cl)c1-c1nc(-c2ccncc2)no1,–,"inconclusive [activator, single point]"
CC(C)n1nnnc1SCC(=O)N1N=C(c2cccs2)CC1c1cccs1 (centres undefined),–,"inconclusive [activator, partial curve, poor fit]"
Cc1c(C)c2ccc(OCC(=O)N3CCC(C(=O)O)CC3)c(C)c2oc1=O,–,"inconclusive [activator, single point]"
